PMC3170314
These are yes or no findings as the source states them, for the method shown. Binding seen in cells or lysates may run through a third protein. Some entries that bind do so weakly or less than the wild type. Sequences can lack the tags named with a protein. One block for each molecule: values may come before it.

The chains behind the UniProt entries cited, without tags or fusion partners.
UniProt Q9H1Y0: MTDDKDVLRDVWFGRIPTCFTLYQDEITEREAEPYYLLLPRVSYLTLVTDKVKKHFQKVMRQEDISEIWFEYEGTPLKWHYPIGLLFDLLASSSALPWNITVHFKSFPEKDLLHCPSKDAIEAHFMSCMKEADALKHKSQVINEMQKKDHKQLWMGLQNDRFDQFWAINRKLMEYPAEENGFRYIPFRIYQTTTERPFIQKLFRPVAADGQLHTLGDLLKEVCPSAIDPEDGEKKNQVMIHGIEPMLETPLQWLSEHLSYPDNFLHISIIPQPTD

How the values were obtained:
[1] = target: T1, 3Flag tagged BNIP1 (human) (UniProt Q12981); assay: co-IP; 293T cells co-transfected with 3Flag-BNIP1 and with Myc-Ub and RNF185-2HA or empty vectors; IP of BNIP1 and blot for endogenous p62
T1 sequence: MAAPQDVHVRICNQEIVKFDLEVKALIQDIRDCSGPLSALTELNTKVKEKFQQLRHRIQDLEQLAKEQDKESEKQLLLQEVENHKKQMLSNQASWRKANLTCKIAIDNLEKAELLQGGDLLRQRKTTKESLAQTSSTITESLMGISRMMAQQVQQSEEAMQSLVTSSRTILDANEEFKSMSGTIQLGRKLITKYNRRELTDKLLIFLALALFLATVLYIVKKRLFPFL

3Flag tagged ATG5 = 3Flag tagged ATG5 (UniProt Q9H1Y0); assay: co-IP; 293T cells co-transfected with a 3Flag tagged and a 2HA tagged construct; 24 h later lysates (50 mM Tris-HCl pH 7.5, 150 mM NaCl, 1 mM EDTA, 1% Triton X-100, 10% glycerol) precipitated with anti-Flag conjugated beads and blotted with anti-Flag and anti-HA
[2] = target: T1, 3Flag tagged BNIP1 (human); assay: as above
[3] = target: T2, 3Flag tagged RNF185 (human) (UniProt Q96GF1); assay: as above
T2 sequence: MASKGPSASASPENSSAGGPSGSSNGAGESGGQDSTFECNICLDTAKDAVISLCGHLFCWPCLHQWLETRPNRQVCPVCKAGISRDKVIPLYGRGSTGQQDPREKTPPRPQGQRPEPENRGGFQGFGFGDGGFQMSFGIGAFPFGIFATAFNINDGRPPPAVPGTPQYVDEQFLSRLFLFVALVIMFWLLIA

[4] = target: T2, 3Flag tagged RNF185 (human); assay: co-IP; 293T cells transfected with 3Flag tagged RNF185 or empty vector; lysates precipitated as in Fig. 5A and blotted for endogenous BNIP1

B2: 2HA tagged BNIP1 (protein, UniProt Q12981 1-228)
chain: MAAPQDVHVRICNQEIVKFDLEVKALIQDIRDCSGPLSALTELNTKVKEKFQQLRHRIQDLEQLAKEQDKESEKQLLLQEVENHKKQMLSNQASWRKANLTCKIAIDNLEKAELLQGGDLLRQRKTTKESLAQTSSTITESLMGISRMMAQQVQQSEEAMQSLVTSSRTILDANEEFKSMSGTIQLGRKLITKYNRRELTDKLLIFLALALFLATVLYIVKKRLFPFL
binding [3]: binds

B3: endogenous BNIP1 (protein, UniProt Q12981 1-228)
chain: MAAPQDVHVRICNQEIVKFDLEVKALIQDIRDCSGPLSALTELNTKVKEKFQQLRHRIQDLEQLAKEQDKESEKQLLLQEVENHKKQMLSNQASWRKANLTCKIAIDNLEKAELLQGGDLLRQRKTTKESLAQTSSTITESLMGISRMMAQQVQQSEEAMQSLVTSSRTILDANEEFKSMSGTIQLGRKLITKYNRRELTDKLLIFLALALFLATVLYIVKKRLFPFL
binding [4]: binds

B4: 2HA tagged Bcl-w (protein, UniProt Q92843 1-193)
chain: MATPASAPDTRALVADFVGYKLRQKGYVCGAGPGEGPAADPLHQAMRAAGDEFETRFRRTFSDLAAQLHVTPGSAQQRFTQVSDELFQGGPNWGRLVAFFVFGAALCAESVNKEMEPLVGQVQEWMVAYLETQLADWIHSSGGWAEFTALYGDGALEEARRLREGNWASVRTVLTGAVALGALVTVGAFFASK
binding [3]: no binding

Results, then the molecule that gave them:

binding [1]: binds
Molecule: endogenous p62 (from UniProt Q13501 1-440)

binding (3Flag tagged ATG5): binds
binding [2]: binds
B1: 2HA tagged RNF185 (enzyme, UniProt Q96GF1-1 1-192)
chain: MASKGPSASASPENSSAGGPSGSSNGAGESGGQDSTFECNICLDTAKDAVISLCGHLFCWPCLHQWLETRPNRQVCPVCKAGISRDKVIPLYGRGSTGQQDPREKTPPRPQGQRPEPENRGGFQGFGFGDGGFQMSFGIGAFPFGIFATAFNINDGRPPPAVPGTPQYVDEQFLSRLFLFVALVIMFWLLIA
